In publication PMC9669019, “Molecular basis for integrin adhesion receptor binding to p21-activated kinase 4 (PAK4)” (Communications Biology, 2022):
Results are given in words; binding and its absence hold for the method and conditions named. For some assays here: In cells and extracts the contact can be indirect. Some results given as binding are weak or reduced against the parent protein; the word gives no strength. For some assays here: Where a sequence is shown, tags or fusion partners need not be part of it.

The chains behind the UniProt entries cited, without tags or fusion partners. A line that says so, or that is headed by a name, gives the form on record, which may keep a tag or linker. Residues count along the entry.
GST-tagged full-length integrin β5 tail (residues 743–799) (P18084, residues 743-799): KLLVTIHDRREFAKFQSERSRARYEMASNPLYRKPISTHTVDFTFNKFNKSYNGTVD
GST-fusion of integrin β5 residues 743–774 (P18084, residues 743-774): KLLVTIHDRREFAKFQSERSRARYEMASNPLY

T1: PAK4 catalytic domain D440N/S474E (PAK4cat^D440N,S474E) (human) (UniProt O96013)
T1 sequence: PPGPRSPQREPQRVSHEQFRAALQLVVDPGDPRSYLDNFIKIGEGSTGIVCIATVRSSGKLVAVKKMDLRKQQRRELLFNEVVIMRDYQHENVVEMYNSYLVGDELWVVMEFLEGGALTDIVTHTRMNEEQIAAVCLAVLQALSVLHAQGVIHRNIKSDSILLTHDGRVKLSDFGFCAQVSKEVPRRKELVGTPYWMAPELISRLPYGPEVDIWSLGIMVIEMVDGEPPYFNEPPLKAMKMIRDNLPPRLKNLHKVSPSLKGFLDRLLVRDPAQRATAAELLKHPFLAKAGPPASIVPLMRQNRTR


What was measured:
[1] = molecular target: PAK4 catalytic domain, purified recombinant (PAK4-cat) (human) (UniProt O96013); experiment: crystal structure; PAK4cat co-crystallised with 2 mM integrin β5 760–770 peptide; 1 mM peptide soaked into PAK4cat D440N,S474E crystals; 1 mM AMP-PNP, 5 mM MgCl2; both purified
[2] = molecular target: T1, PAK4 catalytic domain D440N/S474E (PAK4cat^D440N,S474E) (human); experiment: as above
[3] = molecular target: GST-fusion of integrin β5 residues 743–774 (UniProt P18084); experiment: pull-down; GST or GST-fusion constructs of integrin β5 pull down GFP-PAK4-cat or GFP-PAK4-Δcat expressed in whole cells; quantified; only the target purified
[4] = molecular target: GST-tagged full-length integrin β5 tail (residues 743–799) (UniProt P18084); experiment: as above

Binder	binding [1]	binding [2]	binding [3]	binding [4]
ERSRARYEMAS (N-terminal acetyl, C-terminal amide) [integrin β5 peptide, residues Glu760-Ser770]	binds	binds	–	–
GFP-PAK4-cat (PAK4 kinase domain, residues 302–591) (domain or fragment, UniProt O96013-1 302-591) EQFRAALQLVVDPGDPRSYLDNFIKIGEGSTGIVCIATVRSSGKLVAVKKMDLRKQQRRELLFNEVVIMRDYQHENVVEMYNSYLVGDELWVVMEFLEGGALTDIVTHTRMNEEQIAAVCLAVLQALSVLHAQGVIHRDIKSDSILLTHDGRVKLSDFGFCAQVSKEVPRRKSLVGTPYWMAPELISRLPYGPEVDIWSLGIMVIEMVDGEPPYFNEPPLKAMKMIRDNLPPRLKNLHKVSPSLKGFLDRLLVRDPAQRATAAELLKHPFLAKAGPPASIVPLMRQNRTR	–	–	binds	binds
GFP-PAK4-Δcat (N-terminal regions of PAK4, residues 1–301) (domain or fragment, UniProt O96013-1 1-301) MFGKRKKRVEISAPSNFEHRVHTGFDQHEQKFTGLPRQWQSLIEESARRPKPLVDPACITSIQPGAPKTIVRGSKGAKDGALTLLLDEFENMSVTRSNSLRRDSPPPPARARQENGMPEEPATTARGGPGKAGSRGRFAGHSEAGGGSGDRRRAGPEKRPKSSREGSGGPQESSRDKRPLSGPDVGTPQPAGLASGAKLAAGRPFNTYPRADTDHPSRGAQGEPHDVAPNGPSAGGLAIPQSSSSSSRPPTRARGAPSPGVLGPHASEPQLAPPACTPAAPAVPGPPGPRSPQREPQRVSH	–	–	–	no binding
